In the supplement of paper PMC8728848:
This is one part of the list.

Legend:
Experiment in all cases: glycan array binding signal (z-score within array); higher = stronger binding
Conditions in all cases: glycan notation: IUPAC condensed, linker removed
[1] = biological target: Neu5Ac(a2-3)Gal(b1-4)[Fuc(a1-3)]GlcNAc(b1-3)Gal(b1-4)GlcNAc
How it was run: (§1)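 The binding signal is a Z-score computed within each array. Data were drawn from 3228 arrays in the Consortium for Functional Glycomics database, restricted to those with a known protein sequence. Scores were averaged over arrays of the same protein sequence at different concentrations or buffers, and over linkers, and negative values can be taken as non-binding.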

[2] = biological target: Neu5Ac(a2-3)Gal(b1-4)[Fuc(a1-3)]GlcNAc(b1-3)Gal(b1-4)[Fuc(a1-3)]GlcNAc(b1-3)Gal(b1-4)[Fuc(a1-3)]GlcNAc
How it was run: as §1

[3] = biological target: Neu5Ac(a2-3)Gal(b1-4)[Fuc(a1-3)]GlcNAc(b1-3)GalNAc
How it was run: as §1

[4] = biological target: Neu5Ac(a2-3)Gal(b1-4)[Fuc(a1-3)]GlcNAc(b1-6)[Gal(b1-3)]GalNAc
How it was run: as §1

[5] = biological target: Neu5Ac(a2-3)Gal(b1-4)[Fuc(a1-3)]GlcNAc(b1-6)[Neu5Ac(a2-3)Gal(b1-3)]GalNAc
How it was run: as §1

[6] = biological target: Neu5Ac(a2-3)Gal(b1-4)[Fuc(a1-3)]GlcNAc6S
How it was run: as §1

[7] = biological target: Neu5Ac(a2-3)Gal6S(b1-4)GlcNAc
How it was run: as §1

[8] = biological target: Neu5Ac(a2-3)Gal6S(b1-4)[Fuc(a1-3)]GlcNAc
How it was run: as §1

[9] = biological target: Neu5Ac(a2-3)GalNAc
How it was run: as §1

[10] = biological target: Neu5Ac(a2-3)GalNAc(b1-4)GlcNAc
How it was run: as §1

[11] = biological target: Neu5Ac(a2-3)[GalNAc(b1-4)]Gal(b1-4)Glc
How it was run: as §1

[12] = biological target: Neu5Ac(a2-3)[GalNAc(b1-4)]Gal(b1-4)GlcNAc
How it was run: as §1

[13] = biological target: Neu5Ac(a2-3)[GalNAc(b1-4)]Gal(b1-4)GlcNAc(b1-3)GalNAc
How it was run: as §1

[14] = biological target: Neu5Ac(a2-3)[Neu5Ac(a2-6)]GalNAc
How it was run: as §1

[15] = biological target: Neu5Ac(a2-6)Gal
How it was run: as §1

[16] = biological target: Neu5Ac(a2-6)Gal(b1-3)GlcNAc(b1-3)[Gal(b1-4)GlcNAc(b1-6)]Gal(b1-4)Glc
How it was run: as §1

[17] = biological target: Neu5Ac(a2-6)Gal(b1-4)Glc
How it was run: as §1

[18] = biological target: Neu5Ac(a2-6)Gal(b1-4)GlcNAc
How it was run: as §1

[19] = biological target: Neu5Ac(a2-6)Gal(b1-4)GlcNAc(b1-2)Man
How it was run: as §1

[20] = biological target: Neu5Ac(a2-6)Gal(b1-4)GlcNAc(b1-2)Man(a1-3)Man(b1-4)GlcNAc(b1-4)GlcNAc
How it was run: as §1

[21] = biological target: Neu5Ac(a2-6)Gal(b1-4)GlcNAc(b1-2)Man(a1-3)[Gal(b1-4)GlcNAc(b1-2)Man(a1-6)]Man(b1-4)GlcNAc(b1-4)GlcNAc
How it was run: as §1

[22] = biological target: Neu5Ac(a2-6)Gal(b1-4)GlcNAc(b1-2)Man(a1-3)[GlcNAc(b1-2)Man(a1-6)]Man(b1-4)GlcNAc(b1-4)GlcNAc
How it was run: as §1

[23] = biological target: Neu5Ac(a2-6)Gal(b1-4)GlcNAc(b1-2)Man(a1-3)[GlcNAc(b1-4)][Neu5Ac(a2-6)Gal(b1-4)GlcNAc(b1-2)Man(a1-6)]Man(b1-4)GlcNAc(b1-4)GlcNAc
How it was run: as §1

B1: Arath Fbox LD (Arabidopsis thaliana) (protein)
chain: EFSVWLEKASGKRCLMLSAMNLSIIWGDNPQYWQWIPIPESRFEKVAKLRDVCWFEIRGRTNTRVLSPRTRYSAYIVFKGVDKCYGFQNVAIEAAVGVVGQEPSRRLICFSEAIRRGRRNVVKPKQREDGWMEIELGEFFNDGGIMDNDEIEMSALETKQLNRKCGLIIQGIEIRPAKILAAASFLEQKLISEEDLNSAVDHHHHHH
glycan array binding signal (z-score) [1]: -0.229 | glycan array binding signal (z-score) [2]: -0.474 | glycan array binding signal (z-score) [3]: -0.289 | glycan array binding signal (z-score) [4]: -0.099 | glycan array binding signal (z-score) [5]: -0.61 | glycan array binding signal (z-score) [6]: -0.349 | glycan array binding signal (z-score) [7]: 0.922 | glycan array binding signal (z-score) [8]: -0.626 | glycan array binding signal (z-score) [9]: -0.421 | glycan array binding signal (z-score) [10]: -0.59 | glycan array binding signal (z-score) [11]: -0.091 | glycan array binding signal (z-score) [12]: -0.521 | glycan array binding signal (z-score) [13]: -0.387 | glycan array binding signal (z-score) [14]: -0.019 | glycan array binding signal (z-score) [15]: 2.83 | glycan array binding signal (z-score) [16]: -0.592 | glycan array binding signal (z-score) [17]: 0.791 | glycan array binding signal (z-score) [18]: -0.052 | glycan array binding signal (z-score) [19]: -0.264 | glycan array binding signal (z-score) [20]: -0.022 | glycan array binding signal (z-score) [21]: -0.363 | glycan array binding signal (z-score) [22]: -0.265 | glycan array binding signal (z-score) [23]: 0.252
